The text below walks through data of the supplement of paper PMC4466236.

Over roughly 33,000 sequences, “E-score (dimensionless, -0.5 to 0.5)” has its median near -0.058; the highest 2% begin near 0.35. The list shows a part of the results.

The subject of this test is MvaT. Kind of test: PBM 8-mer E-score (mean of HK and ME arrays) (E-score (dimensionless, -0.5 to 0.5)); higher = stronger relative binding preference; most listed sequences are background and not binding sites. In a few lines: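 Full-length P. aeruginosa MvaT carrying an N-terminal glutathione S-transferase tag was tested by protein binding microarray following a previously described protocol. Two universal double-stranded 60-mer arrays, ME and HK, were used, each with a constant 25-mer primer region and a variable 35-mer region covering all 8-mers. The rank-based E-score is the mean of the two arrays, parsed with a custom script. Its range runs from -0.5 to 0.5 for each 8-mer.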
In the case of TGGACAAA, the “PBM 8-mer E-score” value came out at 0.0389.
On to CCGTTTCG, for which the “PBM 8-mer E-score” value is -0.106.
Regarding ACAGTTCG, the “PBM 8-mer E-score” value came out at 0.115.
With AATTCGAC the figure was -0.053; with CGCACCGA, 0.00029.
On to GATATCAC, for which the “PBM 8-mer E-score” value was determined as 0.119.
On to CGTTGCAC, for which the “PBM 8-mer E-score” value is -0.227.
For CCACTGAC, the “PBM 8-mer E-score” value is -0.15.
Consider CCAATTAG, for which the “PBM 8-mer E-score” value was found to be 0.073.
For the sequence ATGGGACC, the “PBM 8-mer E-score” value was -0.213.
With CCAGACTA, the “PBM 8-mer E-score” value was -0.0942.
Turning to TACATGTA, the “PBM 8-mer E-score” value worked out at 0.321.
In the case of CCCCCCAC, the “PBM 8-mer E-score” value was -0.373.
For the sequence AGTAACAC, the “PBM 8-mer E-score” value is 0.213.
As to CTCGGGAA, the “PBM 8-mer E-score” value was -0.119.
With CTAGCGCA the figure was -0.235; with GGTGCCTA, -0.0806; with CAATACAA, 0.199.
For CACATTTC, the “PBM 8-mer E-score” value stood at 0.159.
Regarding CAGAGCTA, the “PBM 8-mer E-score” value was -0.148.
With AAAAGATT the figure was 0.237.
With CGCACAAG, the “PBM 8-mer E-score” value was -0.0906.
In the case of CGGGTACG, the “PBM 8-mer E-score” value was -0.178.
In the case of CTTAGCCA, the “PBM 8-mer E-score” value is -0.0815.
With CTCAGTGC the figure was -0.0732; with CAGGGAGC, -0.371; with CATAACTA, 0.286.
With GAGGAGAA the figure was -0.239.
With ACATCCAA the figure was 0.158; with GTCCTCCA, -0.348; with GTTTATTA, 0.407.
For AACGGACT, the “PBM 8-mer E-score” value is -0.0917.
For ACGGCACA, the “PBM 8-mer E-score” value came to 0.117.
With CCTAGGAG the figure was -0.293; with ATCGGAAG, -0.0287.
Turning to TAATAGTA, the “PBM 8-mer E-score” value worked out at 0.362.
The same measure for GGGCGGAA: -0.17.
In the case of GGATGAAC, the “PBM 8-mer E-score” value came out at 0.0137.
For the sequence CCGATCAA, the “PBM 8-mer E-score” value is -0.0487.
With ACCAAGCG, the “PBM 8-mer E-score” value was -0.286.
For CCCTAAAA, the “PBM 8-mer E-score” value was -0.0293.
As to GTCGGCCA, the “PBM 8-mer E-score” value was -0.253.
With ACAGCCTG, the “PBM 8-mer E-score” value is -0.125.
For CGGCACAC, the “PBM 8-mer E-score” value was -0.0132.
The same measure for CATGATGG: -0.125.
As for CATCGGCC, the “PBM 8-mer E-score” value is -0.211.
With CATATTGC the figure was 0.194; with GAAGCAGC, -0.303; with AGGTAGCC, -0.172.
With ATGCAAGC, the “PBM 8-mer E-score” value was -0.0519.
Regarding ATTGTTGA, the “PBM 8-mer E-score” value amounted to 0.115.
With AAGTAGTG, the “PBM 8-mer E-score” value is 0.168.
For the sequence ATAACACA, the “PBM 8-mer E-score” value was 0.314.
CTGGCAAC: the “PBM 8-mer E-score” value worked out at 0.0118.
AGTCAGAA: the “PBM 8-mer E-score” value amounted to 0.0155.
As for TATCTAGA, the “PBM 8-mer E-score” value is 0.17.
On to GGTAGCAA, for which the “PBM 8-mer E-score” value was -0.0509.
With AGTTAGAC the figure was 0.0898; with ATAGATCA, 0.0377.
On to AGAGCTAA, for which the “PBM 8-mer E-score” value is -0.0847.
ACGAAGAG: the “PBM 8-mer E-score” value was -0.0503.
ACCCAACA: the “PBM 8-mer E-score” value was -0.0628.
CTTGATTC: the “PBM 8-mer E-score” value is -0.0843.
The same measure for CCGGATGC: -0.203.
With AAGGAGAA the figure was -0.165.
With ATACTCTG the figure was 0.123; with ATAGTTGA, 0.259; with CTTGAGTA, 0.0587.
Turning to ACAGAAGG, the “PBM 8-mer E-score” value was -0.153.
For CTAGTAAG, the “PBM 8-mer E-score” value was -0.181.
For the sequence ATCTAATC, the “PBM 8-mer E-score” value was 0.167.
The same measure for CAGGCAGC: -0.235.
In the case of AGATCATC, the “PBM 8-mer E-score” value is -0.117.
Turning to ACGCTACT, the “PBM 8-mer E-score” value is -0.032.
As to ATTTATAA, the “PBM 8-mer E-score” value came out at 0.459.
Turning to GTCGAAGA, the “PBM 8-mer E-score” value is -0.0654.
For ACGGTCCG, the “PBM 8-mer E-score” value was -0.343.
With GGGCACAA the figure was -0.0187.
For the sequence AACAACTC, the “PBM 8-mer E-score” value amounted to 0.185.
In the case of CGCCCTAC, the “PBM 8-mer E-score” value was -0.195.
Regarding GCGTGTAA, the “PBM 8-mer E-score” value is -0.0288.
Turning to CGACGTAC, the “PBM 8-mer E-score” value is -0.0495.
The same measure for CGTAGACG: -0.272.
Consider ACGTCGAG, for which the “PBM 8-mer E-score” value is -0.102.
On to GAACGTGC, for which the “PBM 8-mer E-score” value was -0.149.
On to GAGAGTGC, for which the “PBM 8-mer E-score” value is -0.148.
